Assay results: paper PMC3950666, “Cellular trafficking determines the exon skipping activity of Pip6a-PMO in mdx skeletal and cardiac muscle cells” (Nucleic Acids Research, 2013)

System: H2k mdx myotubes
Test: Intracellular distribution by fluorescence microscopy in H2k mdx myotubes
Type: cell-based, mouse
Details: 1000 nM; all analysed conditions (myoblasts and myotubes of H2k mdx and C2C12 cells)
Experimental: Cells were then transfected with Pip6a-PMO-CF (1 µM) or PMO-CF (1 µM) for 1 h or 4 h. Ten minutes before the end of the incubation, 1 µl Hoechst 33342 dye (Invitrogen Life technology) was added to each dish to visualize the nucleus. The excess of conjugate or dye was eliminated by washing (2x PBS). Finally, 2 ml of OptiMEM were added as a final volume and 10 µl of trypan blue solution (Invitrogen Life technology) were added to quench extracellular fluorescence. Fluorescent images were captured immediately using a Zeiss Axiovert 200 M fluorescence microscope and the Axio Vision software (Carl Zeiss).

## PMO: phosphorodiamidate morpholino oligomer 5′-GGCCAAACCTCGGCTTACCTGAAAT-3′ with 5′-amino linker and 3′-fluorescein label, Gene Tools (morpholino, 5'-amino linker, 3'-fluorescein, chemistry not fully specified) [reference compound]
  fluorescent signal in cells: did not yield any detectable fluorescent signal
